Measured values from patent publication US20140045779A1, “COMPOUNDS CONTAINING AN ALICYCLIE STRUCTURE AND ANTI-TUMOR APPLICATION” (priority 2011, published 2014).
Values after ≈ are worked out from the molar mass of the structure shown.

Key:
[1] = test system: human colorectal cancer cell line HT29; experiment: cells; conditions: HT-29, read-out: IC50, anti-proliferative effect on HT29
[2] = test system: human pancreatic cancer cell line Panc-1; experiment: cells; conditions: PANC-1, read-out: IC50, anti-proliferative effect on Panc-1 cells

Row | IC50 [1] [µg/mL] | IC50 [2] [µg/mL] | SMILES
1 | 38.3 (≈ 249 µM) | 17.6 (≈ 114 µM) | OC12CC3CC(CC(C3)O1)C2 [Example 47, 2-oxaadamantan-1-ol]
2 | 3.62 (≈ 7.47 µM) | 3.26 (≈ 6.73 µM) | COc1cc(C23CN4CN(C2)CC(c2cc(OC)c(OC)c(OC)c2)(C4)C3=O)cc(OC)c1OC [Example 62, (1r,3r,5r,7r)-5,7-bis(3,4,5-trimethoxyphenyl)-1,3-diazaadamantan-6-one]
3 | 54.1 (≈ 356 µM) | 26.8 (≈ 176 µM) | O=C1C2CC3CC(C2)OC1C3 (centres unmarked) [Example 43, 2-oxaadamantan-4-one]

Row | SMILES | IC50 [1] [µg/mL] | IC50 [2] [µg/mL]
4 | CCCCCNC12CN3CN(CN(C3)C1)C2 [Example 68, (1s,3s,5s)-N-pentyl-1,3,5-triazaadamantan-7-amine] | 1.03 (≈ 4.59 µM) | 3.4 (≈ 15.2 µM)
